From the supplement of paper PMC8821664
Where a name gives a salt, the structure may show the parent alone. The list shows a part of the results. Repeats are few or missing, and single values can be far off.

System: Beas-2B AQP5-HiBiT reporter cells
Experiment: AQP5-HiBiT luminescence relative to vehicle (ratio to vehicle); higher = higher AQP5-HiBiT protein abundance
Settings: 10 µM; 18 h
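Note: monoclonal Beas-2B line stably carrying CMV promoter-driven AQP5-HiBiT, 5,000 cells per well in 384-well plates, lytic HiBiT plus LgBiT NanoLuc luminescence, FDA-approved drug library screen.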

Row | Compound | AQP5-HiBiT luminescence
1 | CN(C)CCc1c[nH]c2ccc(CS(=O)(=O)N3CCCC3)cc12 [Almotriptan Malate] | 0.631
2 | CCCN(CCC)CCc1cccc2c1CC(=O)N2 [Ropinirole hydrochloride] | 1.13
3 | CN(C)CC[C@@H](c1ccc(Cl)cc1)c1ccccn1 [Dexchlorpheniramine Maleate] | 0.66
4 | CS(=O)(=O)c1ccc(C2=C(c3ccccc3)C(=O)OC2)cc1 [Rofecoxib] | 0.712
5 | CNNCc1ccc(C(=O)NC(C)C)cc1 [Procarbazine hydrochloride] | 0.932
6 | CN(C)CCC(c1ccccc1)c1ccccn1 (centres undefined) [Pheniramine maleate] | 0.848
7 | c1ccc(CN(CC2=NCCN2)c2ccccc2)cc1 [Antazoline hydrochloride] | 0.829
8 | C#CC1(O)CC[C@H]2[C@@H]3CCC4=CC(=O)CC[C@@H]4[C@H]3CC[C@@]21CC (some centres undefined) [Norgestrel] | 0.935
9 | CO[C@H]1C[C@@H]2CC[C@@H](C)[C@@](O)(O2)C(=O)C(=O)N2CCCC[C@H]2C(=O)O[C@H]([C@H](C)C[C@@H]2CC[C@@H](OCCO)[C@H](OC)C2)CC(=O)[C@H](C)/C=C(\C)[C@@H](O)[C@@H](OC)C(=O)[C@H](C)C[C@H](C)/C=C/C=C/C=C/1C [Everolimus (RAD001)] | 0.451
10 | CC(=O)N[C@@H](CS)C(=O)O [Acetylcysteine] | 0.854
11 | OC[C@H]1O[C@@H](c2ccc(Cl)c(Cc3ccc(O[C@H]4CCOC4)cc3)c2)[C@H](O)[C@@H](O)[C@@H]1O | 0.643
12 | CCCC(=O)OCOC(=O)C1=C(C)NC(C)=C(C(=O)OC)C1c1cccc(Cl)c1Cl (centres undefined) [Clevidipine butyrate] | 0.775
13 | C[C@H](N)[C@H](O)c1cccc(O)c1 [Metaraminol bitartrate] | 0.735
14 | CCOc1cc(CC(=O)N[C@@H](CC(C)C)c2ccccc2N2CCCCC2)ccc1C(=O)O [Repaglinide] | 0.768
15 | CC(C)(C)NC[C@H](O)COc1nsnc1N1CCOCC1 [Timolol Maleate] | 1.55
16 | CC(=O)Oc1ccccc1C(=O)O [Acetylsalicylic acid] | 0.97
17 | NS(=O)(=O)c1cc2c(cc1Cl)N=C(CSCc1ccccc1)NS2(=O)=O [Benzthiazide] | 1.14

Row | Compound | AQP5-HiBiT luminescence
18 | COC(=O)c1ccc2c(c1)NC(=O)/C2=C(\Nc1ccc(N(C)C(=O)CN2CCN(C)CC2)cc1)c1ccccc1 [Nintedanib (BIBF 1120)] | 0.773
19 | Cc1cc(/C=C/C#N)cc(C)c1Nc1ccnc(Nc2ccc(C#N)cc2)n1 [Rilpivirine] | 0.678
20 | NC(=O)N/N=C/c1ccc([N+](=O)[O-])o1 [Furacilin] | 0.826
21 | CC(=O)N(CC(O)CO)c1c(I)c(C(=O)NCC(O)CO)c(I)c(C(=O)NCC(O)CO)c1I (centres undefined) [Iohexol] | 0.949
22 | CN(C)[C@@H]1C(O)=C(C(N)=O)C(=O)[C@@]2(O)C(O)=C3C(=O)c4c(O)cccc4[C@@](C)(O)[C@H]3[C@H](O)[C@@H]12 [Oxytetracycline (Terramycin)] | 0.974
23 | N=C1CCCN1Cc1[nH]c(=O)[nH]c(=O)c1Cl [Tipiracil hydrochloride] | 1.9
24 | CC(C)NCC(O)COc1cccc2ccccc12 (centres undefined) [Propranolol hydrochloride] | 0.926
25 | N=C(N)c1ccc(OCCCCCOc2ccc(C(=N)N)cc2)cc1 [Pentamidine isethionate] | 0.821
26 | CN(C)CCC[C@@]1(c2ccc(F)cc2)OCc2cc(C#N)ccc21 [Escitalopram] | 1.2
27 | CN(C/C=C/C#CC(C)(C)C)Cc1cccc2ccccc12 [Terbinafine hydrochloride] | 1.23
28 | CC(C)[C@H](N)C(=O)OCC(CO)OCn1cnc2c(=O)nc(N)[nH]c21 (some centres undefined) [Valganciclovir hydrochloride] | 0.779
29 | CNCC[C@H](Oc1cccc2ccccc12)c1cccs1 [Duloxetine hydrochloride] | 1.12
30 | CCN(CC)CC#CCOC(=O)C(O)(c1ccccc1)C1CCCCC1 (centres undefined) [Oxybutynin] | 1.04
31 | CC(C(=O)O)c1cccc(Oc2ccccc2)c1 (centres undefined) [Fenoprofen calcium] | 0.698
32 | Nc1nc2ccc(OC(F)(F)F)cc2s1 [Riluzole] | 1.35
33 | Cc1c(-c2ccc(O)cc2)n(Cc2ccc(OCCN3CCCCCC3)cc2)c2ccc(O)cc12 [Bazedoxifene acetate] | 1.5
34 | Cc1onc(-c2ccccc2)c1C(=O)N[C@@H]1C(=O)N2[C@@H]1SC(C)(C)[C@@H]2C(=O)O [Oxacillin sodium] | 0.953
